Results taken from PubChem BioAssay AID588855 (National Center for Advancing Translational Sciences (NCATS), 2011).
About 5,000 (1.2%) of roughly 410,000 compounds were called active. Inconclusive results, whose numbers are uncertain, are shown with a selection of clear calls. Calls come from the whole dose curve; as a rule, active = well fitted inhibition curve with a large enough effect; inconclusive = small, poorly fitted or top-dose-only effect; inactive = no such curve, though single readings can be large or run the other way. Potencies of inconclusive entries are doubtful fits and often do not repeat.

Test: qHTS for Inhibitors of TGF-b; note: nearly all actives have a fitted effect of over 65% in size
Conditions: HepG2 CAGA-GFP TGF-b/SMAD3 reporter, GFP fluorescence, 18 h, TGF-beta stimulated, 500 pg/mL final; series mostly up to 46.1 µM
In short: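 Inhibition was scored as loss of TGF-beta-induced (500 pg/mL final, 18 hours, 37 degrees C) GFP in HEPG2 cells carrying a CAGA-GFP reporter, in DMEM with 1% FBS. Well GFP was summed per cell; Activity was normalised to unstimulated and stimulated DMSO wells, then concentration-response fitting.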
Potency is the fitted concentration of half-maximal effect; tags give direction and shape of the fitted curve.

Structure (SMILES) | Potency
CC1=CC(C)(C)NC(=S)N1c1ccc(C)c(C)c1 | inconclusive: 11.2 µM [inhibitor, partial curve, poor fit]
Nc1nc(-c2ccc(S(=O)(=O)N3CCCCC3)cc2)cs1 | inconclusive: 8.91 µM [inhibitor, partial curve]
COc1cccc(NC(=O)C2CCCN(S(=O)(=O)c3c(C)nn(C)c3C)C2)c1 (configuration not stated) | inactive
CC12COC3(C(=O)Nc4ccc([N+](=O)[O-])cc4)CC1CCC32C (configuration not stated) | inactive
Cc1ccc(S(=O)(=O)CCC(=O)NCCc2ccccc2)cc1 | inactive
COc1ccc(-c2nc(CSCC(=O)NCc3ccc4c(c3)OCO4)c(C)o2)cc1OC | inactive
CCC(=O)NC(=S)Nc1ccc(NC(=O)COc2ccc(Cl)cc2Cl)cc1 | inconclusive: 35.5 µM [inhibitor, single point]
COc1ccc(-c2ccc(F)cc2)cc1C1C2C=CCC(C)C2C(=O)N1Cc1ccccc1 (configuration not stated) | inactive
COCC(O)CSc1nc(C)[nH]c1[N+](=O)[O-] (configuration not stated) | inconclusive: 3.55 µM [inhibitor, single point]
Cc1ccccc1NC(=O)Nc1nc(C(N)c2ccccc2)cs1 (configuration not stated) | inactive
COC(=O)C1=CN(Cc2ccc(OC)cc2)C=C(C(=O)OC)C1c1ccsc1 | inconclusive: 6.31 µM [inhibitor, single point]
COc1ccc(-c2[nH]c3ccccc3c2SCCNC(=O)c2cc(OC)c(OC)c(OC)c2)cc1 | inconclusive: 17.8 µM [inhibitor, partial curve, poor fit]
NC(CCc1ccccc1)c1csc(NC(=O)Nc2cccc(Cl)c2)n1 (configuration not stated) | inconclusive: 17.8 µM [inhibitor, single point]
Cc1ccc(-n2ncc(C(=O)NCc3ccccc3C)c2-n2cccc2)cc1 | inactive
CCC1(CC)NC(=O)N(CC(=O)N2CCN(S(=O)(=O)c3cccc(F)c3)CC2)C1=O | inactive
Cc1cccc2sc(NNC(=O)c3ccc(S(=O)(=O)N4CC(C)CC(C)C4)cc3)nc12 (configuration not stated) | inconclusive: 25.1 µM [inhibitor, single point]
O=c1c2ccccc2nc(COc2ccccc2)n1/N=C/c1ccc(O)c(O)c1 | inactive
Cc1ccc(C(C)C)cc1OCC(=O)N/N=C/c1ccc2c(c1)OCCO2 | inconclusive: 22.4 µM [inhibitor, single point]
Cc1ccc(N(C)C(=O)c2cc(S(=O)(=O)N3CCCC3)cn2C)cc1 | inconclusive: 6.31 µM [inhibitor, single point]
O=C(c1ccco1)N1CCN(C(=O)c2ccc(-c3ccc(Cl)cc3)o2)CC1 | inconclusive: 35.5 µM [inhibitor, single point]
O=C(NCC1CCCO1)c1ccc(N2CCCCC2)c([N+](=O)[O-])c1 (configuration not stated) | inactive

Structure (SMILES) | Potency
Nc1ccc(C(=O)N2CCN(S(=O)(=O)c3ccc4c(c3)OCCCO4)CC2)cc1[N+](=O)[O-] | inconclusive: 14.1 µM [inhibitor, single point]
C/C(=N\NC(=O)c1ccccc1[N+](=O)[O-])c1ccc(Br)s1 | inconclusive: 5.62 µM [inhibitor, single point]
CC(=O)N1CCC(C(=O)Nc2ccc(S(=O)(=O)N3CCCCC3)cc2)CC1 | inconclusive: 12.6 µM [inhibitor, partial curve, poor fit]
C(=N\n1cnnc1)/c1cn(Cc2ccccc2)c2ccccc12 | active: 12.6 µM
CNc1ccc2ncc(-c3cccc(C(=O)N(C)C)c3)n2n1 | inconclusive: 11.2 µM [inhibitor, partial curve]
Nc1nc(NCC2CCCO2)nc(Nc2ccccc2F)c1[N+](=O)[O-] (configuration not stated) | inconclusive: 3.55 µM [inhibitor, single point]
Cn1nnnc1Sc1ncnc2scc(-c3ccc(F)cc3)c12 | active: 11.2 µM
O=C(CSc1ncnc2c1nnn2Cc1ccccc1F)NCC1CCCO1 (configuration not stated) | inconclusive: 10 µM [inhibitor, partial curve, poor fit]
Cc1nc(NC(=O)CSc2ccc(-c3nc4ccccc4[nH]3)cn2)sc1C | inconclusive: 35.5 µM [inhibitor, single point]
CN1OC[C@@H]2CN(C(=O)c3cccc4ccccc34)[C@H](c3ccccc3Br)C[C@@H]21 | inconclusive: 35.5 µM [inhibitor, single point]
O=C(NC1CC(=O)N(c2cccc(F)c2)C1)c1ccc(Br)o1 (configuration not stated) | inconclusive: 0.631 µM [inhibitor, full curve, poor fit]
CC(C)(C)c1ccccc1NC(=O)Nc1nc(C(N)Cc2ccc(F)cc2)cs1 (configuration not stated) | inconclusive: 25.1 µM [inhibitor, partial curve, poor fit]
Cc1cccc(N2CCN(CCNC(=O)C3COc4ccccc4C3)CC2)c1C (configuration not stated) | inconclusive: 35.5 µM [inhibitor, single point]
CCCn1c(N2CCN(Cc3cccc(C)c3)CC2)nc2c1c(=O)[nH]c(=O)n2C | inconclusive: 10 µM [inhibitor, partial curve, poor fit]
O=C(NCc1ccc(Cl)cc1)c1cnc(N2CCCCC2)c2ccccc12 | inconclusive: 17.8 µM [inhibitor, single point]
COc1cccc(C(=O)O/N=C(\N)c2ccc(C)cc2)c1 | inconclusive: 14.1 µM [inhibitor, single point]
O=C(O)c1cc(-n2c(/C=C\c3ccc(F)cc3)nc3ccccc3c2=O)ccc1Cl | inconclusive: 12.6 µM [inhibitor, partial curve, poor fit]
CCc1ccc(O)c(CNCCNCc2cc(CC)ccc2O)c1 | inconclusive: 25.1 µM [inhibitor, single point]
S=C(NCCc1ccccc1)Nc1cnc2ccccc2c1 | inconclusive: 25.1 µM [inhibitor, single point]
O=C1c2ccccc2C2(c3ccccc3)N1CCN2C(=O)C(Cl)(Cl)Cl (configuration not stated) | inconclusive: 35.5 µM [inhibitor, single point]
O=C(COC(=O)c1oc2ccccc2c1COc1ccccc1)NCCN1C(=O)CSC1=O | inconclusive: 35.5 µM [inhibitor, partial curve, poor fit]
